# The supplement of paper PMC3334620
# The full ranking holds about 33,000 sequences; the median of “E-score (-0.5 to 0.5)” is about -0.056, and the highest 2% start at about 0.38. This is one part of the list.
# Biological target: Stb4 (UniProt P50104)
# Assay: PBM E-score (8-mer binding enrichment) (E-score (-0.5 to 0.5)); higher = stronger / more preferred TF binding; most listed sequences are background and not binding sites
# Conditions: protein concentration: 200 nM; construct: GST-DNA-binding domain
# Method: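 Universal 'all 10-mer' protein binding microarrays (Agilent AMADID 015681) probed with GST-tagged S. cerevisiae TFs (full-length or DBD) made by in vitro transcription/translation (PURExpress), about 100-200 nM. Bound TF was detected with fluorescent anti-GST. Each ungapped 8-mer (which stands for itself and its reverse complement) is scored by the PBM enrichment score (E-score), a modified Wilcoxon-Mann-Whitney statistic from -0.5 to +0.5, computed with the Universal PBM Analysis Suite. Scale: above 0.35 generally sequence-specific binding.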
row,Sequence,PBM E-score
1,GACTTAGA,-0.223
2,ACATTGAG,-0.138
3,TCCGCGGA,0.28
4,TTACATAA,-0.0584
5,CACCCTTC,-0.0623
6,CAACAAAA,-0.0488
7,CAGTTACG,-0.177
8,TCCAGAAA,-0.202
9,ATGCTATC,0.0699
10,CTAAGTGA,0.118
11,ACTGTGAA,-0.0173
12,GGTGAGAA,0.00583
13,CACTTGCA,-0.219
14,CAAGGCGA,-0.215
15,ACTCGATC,0.046
16,AGCCGCTG,0.0879
17,CACCTTCA,-0.00615
18,ACCCGTGA,0.204
19,ACCACACC,-0.0502
20,CTGCTAAC,-0.0715
21,GGGACCCC,0.0316
22,AAGGAGGT,-0.0767
23,CTCCTCGC,-0.211
24,ATATGCGG,0.167
25,AGCCGCTC,0.115

row,Sequence,PBM E-score
1,ACGGAGTG,0.0683
2,AGCGCCAT,-0.271
3,CAAGTACC,0.153
4,AGGTCGGC,0.272
5,AGATCCCT,-0.226
6,AACTCTAG,-0.198
7,AAAATGAG,-0.183
8,AATGACGG,0.182
9,CACAGGGG,-0.193
10,CACTGTGC,0.0556
11,GGGGAAGA,-0.186
12,ATCGCTAG,-0.0921
13,TGCGAACA,-0.144
14,CTTCCCTA,-0.108
15,ACTCCAAA,-0.0951
16,ACCATCCC,0.0842
17,AGTTGCCA,-0.187
18,CCTGTCGA,-0.167
19,CTGGTAAC,0.0673
20,AAGGGGAA,-0.275
21,GCACCCAC,0.0103
22,ATAAGCGG,-0.0404
23,AATCTGGG,-0.148
24,AACAGACT,-0.116
25,AGCTAGGA,-0.156

row,Sequence,PBM E-score
1,ACTAGGAT,-0.11
2,CCCGTACC,0.245
3,AAGACAGT,-0.0977
4,AGTAGAAG,-0.184
5,ACAGGGGC,-0.0122
6,CCCCGAAC,0.338
7,CAGTGGTA,-0.239
8,GATTCTCC,0.123
9,TATGTGGA,-0.0886
10,ATGACCGG,0.101
11,AGTATTTC,0.224
12,CCCCTGAC,-0.107
13,CCCTTCAA,-0.164
14,AAACTCGT,-0.228
15,AAATCGGT,0.162
16,TAGGAGAA,-0.235
17,ACTCGAGC,-0.133
18,CAGTTAGC,-0.178
19,AAACTGAG,0.0319
20,AACGATCA,-0.211
21,GTGGCCGA,0.159
22,GTGGATTA,-0.0254
23,AGCAGGAC,0.00143
24,CACTCAGA,-0.239
25,CCGCGGAC,0.219

row,Sequence,PBM E-score
1,ATTGGCCC,-0.178
2,AACTTAAA,-0.114
3,ATACTACA,0.089
4,CACCAGCG,-0.158
5,AATGAGAG,-0.194
6,AACACTGT,-0.105
7,AACGTTTC,-0.0752
8,GGACGACA,-0.091
9,CGCAGAAA,-0.137
10,GGTAGTGA,-0.056
11,CAGTAAAG,-0.0435
12,GCATTCGA,-0.089
13,CAGCAAAA,-0.203
14,CCCCCGCG,0.0742
15,TCGTCTCA,-0.0896
16,CTCTTACC,0.0253
17,CACCAACG,-0.0265
18,AAAGCTAC,-0.176
19,CTCCTCTA,-0.232
20,CTTGCCCA,-0.187
21,GACGGAAA,0.36
22,ACACGGGG,0.0501
23,AGGAAACC,0.0293
24,AGTCAGTG,-0.175
25,AGCAGCCT,-0.222

row,Sequence,PBM E-score
1,AAATTTCG,0.0822
2,GGGTAAAA,0.233
3,CCGTAAAA,0.126
4,CAGTCGTA,0.122
5,GAAGTACC,0.182
6,GTCTCGCA,-0.135
7,GGCCCCCC,0.00643
8,GAAATAGA,-0.00249
9,AAAGTACC,0.183
10,TATAGAAA,-0.0801
11,AGACCGTC,-0.0308
12,CCTCCGCG,0.159
13,ACATAGGC,-0.044
14,ATAGCCAC,-0.13
15,CCGATGTA,0.265
16,CTTCTACC,-0.0346
17,CTGCGGGC,0.0439
18,CTGCGGCC,0.0939
19,GTTCGCAA,-0.0829
20,ACTATAGT,1e-05
21,AATATCAG,-0.18
22,CTTAAAAC,-0.12
23,CATTAAAG,-0.237
24,CGCTAGAC,-0.2
25,CGCCGGCG,0.294

row,Sequence,PBM E-score
1,ACAACACC,-0.121
2,AATCGGGT,0.325
3,GGTTTACA,0.148
4,AAGGCCTG,-0.189
5,AGCGGGGC,-0.03
6,AGCGAATG,-0.259
7,ACCATACG,-0.00752
8,ATTAGCTG,-0.197
9,AAACATGC,0.0147
10,AGTAACGC,-0.172
11,CCATAAGA,-0.0982
12,CTCATGAG,-0.291
13,GAACTAGC,0.0711
14,GCTTCAGA,-0.159
15,ATCCAAAA,-0.0737
16,ATCGAAAA,-0.138
17,CAGAAACG,-0.0234
18,GCGTCACC,-0.145
19,AACCTTCC,0.21
20,CTGAAATA,-0.087
21,TAATTACA,-0.136
22,AAAGTTTA,0.0426
23,GATGAAAC,-0.0811
24,CGGGCGCA,0.191
25,CTTTTCTA,-0.111

row,Sequence,PBM E-score
1,AGGTGGAT,-0.184
2,ACGATGAT,-0.0605
3,ATCAGTTA,0.0232
4,TAGACTGA,-0.17
5,CTTCTAAA,-0.12
6,CGATCCAG,-0.0547
7,GTTCGGCA,0.418
8,GGGTACTA,0.108
9,AACGTTAG,-0.0243
10,CACTCCTA,-0.0758
11,ATAAAAAA,0.0403
12,CGTGGCGA,0.0619
13,TCCGCACA,0.214
14,CTAAATTC,0.0154
15,CGGTTCAC,0.0329
16,AAGCGGAT,0.325
17,AAGACGTA,-0.115
18,GACTAAGA,0.00477
19,ATGAGGTA,-0.172
20,AAAAGTAT,0.047
21,AAGGAACC,0.212
22,ACGGCGTA,-0.278
